Reference: patent publication EP2886531B1, “Aspartic acid derivatives” (Merck Patent GmbH, priority 2013, dated 2015)

Description: The solid phase peptide synthesis is carried out following the Fmoc/tBu strategy (Atherton E., et.al., J.Chem. Soc., Chem. Comm., 539 (1978)). 0.44 g of Fmoc-Ile-Wang resin (0.54 mmol/g) are used in an ABI 431 for automated peptide synthesis employing HBTU/ ethyldiisopropylamine (3.6 eq./8.0 eq.) activation for amide bond formation and a solution of 20 % piperidine in dimethylformamide for Fmoc removal. The corresponding amino acids Fmoc-Val-OH, Fmoc-Lvs(Boc)-OH, Fmoc-Asp(OtBu/OMpe/ OEpe/OPhp)-OH, Fmoc-Gly-OH and Fmoc-Tyr(tBu)-OH are used in a four fold excess. […]
Further 50 mg peptide resin samples are treated with a solution of 20 % piperidine in dimethylformamide over 18 hours to simulate multiple Fmoc removals. Afterwards the peptide resin samples are exposed to 95% TFA in water for final cleavage in analogy to the above described protocol and all relevant impurities are identified by MS analysis (Xevo Waters Q-TOF-1, lock mass = 556.277 (leu-enkephaline)) and quantified by HPLC analysis (HPLC conditions: Halo Peptide 2,7 µm (150x4.6 mm) at 40 °C; water acetonitrile gradient of 5 % to 35 % B over 30 min where buffer A is 0.1% TFA and 2 % acetonitrile in water and buffer B is 0.1 % TFA in acetonitrile, flow 1 ml/min). […]

| Half-life in 10' cycles | SMILES |
| --- | --- |
| 175 10' cycles | CCC(CC)(CC)OC(=O)C[C@H](NC(=O)OCC1c2ccccc2-c2ccccc21)C(=O)O [Epe, (2S)-N-((9H-fluoren-9-ylmethyloxy)carbonyl)aspartic acid-4-((3-ethyl)pent-3-yl) ester] |
| 356 10' cycles | CCCC(CCC)(CCC)OC(=O)C[C@H](NC(=O)OCC1c2ccccc2-c2ccccc21)C(=O)O [Php, (2S)-N-((9H-fluoren-9-ylmethyloxy)carbonyl)aspartic acid-4-(4-(n-propyl)hept-4-yl) ester] |
